Source: article PMC6919601, “Identification of Plasmodium dipeptidyl aminopeptidase allosteric inhibitors by high throughput screening” (PLoS ONE, 2019)
Values joined by “and” are separate entries in the source; they are usually repeats but may differ in a detail not shown here. Identical values can stand only once. Among all 110,000 compounds or so, about 230 (0.21%) showed an effect of 50% or more. The list shows a part of the results.

target: DPAP1 (Plasmodium falciparum, UniProt Q8IIJ9); assay: primary screen, percent inhibition; read by cleavage of a fluorogenic dipeptide substrate; higher = more effect of the substance; parameters: species or system P. falciparum D10 trophozoite lysates; single well
Sequence (Q8IIJ9 whole entry, looked up): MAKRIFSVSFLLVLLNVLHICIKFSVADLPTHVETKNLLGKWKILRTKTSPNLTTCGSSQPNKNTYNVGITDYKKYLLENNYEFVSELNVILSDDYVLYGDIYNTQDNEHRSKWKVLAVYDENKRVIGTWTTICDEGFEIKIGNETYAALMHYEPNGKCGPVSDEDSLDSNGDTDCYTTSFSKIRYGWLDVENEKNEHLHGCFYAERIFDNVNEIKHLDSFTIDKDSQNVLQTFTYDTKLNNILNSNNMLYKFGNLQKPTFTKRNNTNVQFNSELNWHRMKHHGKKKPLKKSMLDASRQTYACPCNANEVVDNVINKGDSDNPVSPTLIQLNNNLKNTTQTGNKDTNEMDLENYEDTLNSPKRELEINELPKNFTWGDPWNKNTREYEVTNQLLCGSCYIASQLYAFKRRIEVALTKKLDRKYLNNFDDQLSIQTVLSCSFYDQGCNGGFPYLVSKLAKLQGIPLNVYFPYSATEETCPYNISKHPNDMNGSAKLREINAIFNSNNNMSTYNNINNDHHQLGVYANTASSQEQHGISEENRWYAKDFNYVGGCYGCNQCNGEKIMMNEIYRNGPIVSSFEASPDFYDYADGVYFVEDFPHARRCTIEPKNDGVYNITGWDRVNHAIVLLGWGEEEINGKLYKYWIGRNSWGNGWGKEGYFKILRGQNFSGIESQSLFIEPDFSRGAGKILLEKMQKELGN
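Also: 30 min substrate incubation versus DMSO and 10 µM JCP410 controls.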

Structure (SMILES)	% Inhibition @ 10 uM
O=C1c2ccccc2C(=O)N1CCc1nn[nH]n1	-2.19%
O=C(CNS(=O)(=O)c1ccc2c(c1)C(=O)c1ccccc1C2=O)c1ccccc1	-1.68%
COc1cc(C(=O)Nc2c(C)cccc2C)ccc1OC(F)F	0.389%
COc1cc(CNc2ccccc2)cc2c1OCO2	0.177%
COc1ccc(C(=O)N(Cc2ccco2)Cc2ccccc2Cl)cc1	1.25%
COc1ccc2nc3[nH]nc(NC(=O)Cc4ccccc4OC)c3cc2c1	-2.16%
CCOC(=O)c1c(C)[nH]c(C)c1S(=O)(=O)N1CCC(C(=O)Nc2ncccc2C)CC1	2.41%
CCCCn1c(=N)n(CC(O)c2ccc(Cl)cc2)c2ccccc21 (stereo not shown)	3%
CCOc1ccccc1C(=O)O/N=C(\N)c1cccnc1	-2.98%
CCN1C(=O)NC(c2ccc(Cl)cc2)C(C(=O)OCCOc2ccccc2)=C1C (stereo not shown)	8.98%
COc1ccc(S(=O)(=O)N(C)CC(=O)NC2CCCC2)cc1	5.46%
COc1ccc(OC)c(NC(=O)C2c3ccccc3Oc3ccccc32)c1	5.7%
O=C(NCc1ccccc1F)c1ccc(Cn2cc(Br)cn2)cc1	5.79%
CCOc1ccc(CCNC(=O)Cn2nc(C)n3c(cc4cc(F)ccc43)c2=O)cc1OCC	-1.7%
O=C(c1ccc2c(c1)OCO2)N1CCC(Cc2ccccc2)CC1	-1.54%
O=S(=O)(Nc1ccccc1O)c1ccc(Cl)cc1	-4.35%
Cc1nn(C(C)C(=O)NCCN2CCCCCC2)c(=O)c2nn(-c3ccccc3)c(C)c12 (stereo not shown)	0.227%
CCOc1ccc2c(c1)S/C(=C/c1ccccc1O)C2=O	1.39%
Cc1[nH]c(C(=O)NCCCN2CC(C)CC(C)C2)c(C)c1C(=O)NC1CCCCC1 (stereo not shown)	3.3%
Cc1ccc(S(=O)(=O)N(CC(=O)Nc2ccccc2F)Cc2cccc(C)c2)cc1	1.08%
Cc1ccc2cc(C)c(NCc3ccncc3)nc2c1	1.72%
CC(C)C[C@H](NC(=O)OCc1ccccc1)C(=O)N[C@@H]1CCN(C#N)C1	-5.64%

Structure (SMILES)	% Inhibition @ 10 uM
CCOCCCN(C)C1CCN(S(=O)(=O)c2csc(C(N)=O)c2)CC1	-7.09%
CC(CCN1CCN(Cc2ccccc2)CC1)c1ccccc1 (stereo not shown)	-4.04%
CC(C)=CCCCCCCN1CCN(c2cccc(Cl)c2)CC1	-0.446%
CCCC1=Nc2ncnn2C(c2ccccc2Cl)/C1=C(/O)OCC (stereo not shown)	0.0842%
N#C/C(=C\c1coc2ccccc2c1=O)C(=O)Nc1nc2ccccc2s1	-5.76%
Cc1nn(Cc2c(F)cccc2Cl)c(C)c1NC(=O)c1ccn(C)n1	-4.39%
CCN(CC)c1ccc(C2C3=C(O)CCCC3=NC(C)=C2C(=O)Nc2ccc(F)cc2)cc1 (stereo not shown)	-0.941%
COc1ccc(CN2CCN(c3ccc(F)cc3)CC2)cc1	-3.77%
Cc1[nH]c2ccccc2c1CCNc1ncnc2sc(C)c(C)c12	-0.403%
CCOC(=O)Cc1c(C)nn(-c2ccccc2)c1C	0.035%
CCCc1nn(-c2ccc(F)cc2)c(O)c1/C=N/CCO	-2.77%
COc1ccc(CN(C)S(=O)(=O)c2nnc(NC(=O)C(C)(C)C)s2)cc1OC	3.25%
CCOc1ccccc1NC(=O)CN(C1CCCCC1)S(C)(=O)=O	-5.15%
Cc1ccc(OC(C)C(=O)N(Cc2ccccc2F)C2CCS(=O)(=O)C2)cc1C (stereo not shown)	-3.12%
CCCCOC(=O)Nc1ccc(S(=O)(=O)Nc2ccc(Br)cc2)cc1	-3.35%
C=CCNc1nc(C2COc3ccccc3O2)cs1 (stereo not shown)	-4.15% and -3.85%
CCCCN(CC)CCNC(=O)CCn1c(=O)c2cccn2c2cccnc21	0.951%
CCN(CC)C(=O)NC1C(NC(=O)N(CC)CC)N(C)C(=O)N1C (stereo not shown)	-7.58%
COc1ccc(-c2noc(CC(=O)NC3CCCc4ccccc43)n2)cc1 (stereo not shown)	-0.822%
COc1cc(C)ccc1S(=O)(=O)NC1CC(C)(C)NC(C)(C)C1	-3.49%
COc1cc(-c2nnc3n(CC(C)C)c(=O)c4ccccc4n23)ccc1O	-3.51%
CC(Oc1ccc(Cl)cc1Cl)C(=O)Nc1ccc(S(=O)(=O)N2CCCC2)cc1 (stereo not shown)	3.24%

Structure (SMILES)	% Inhibition @ 10 uM
CCOC(=O)c1sc2nc3c(cc2c1N)CN(Cc1ccccc1)CC3	2.34%
Cc1cn2cccc(C)c2n1	0.66%
C=CCN(CC=C)C(=O)c1sc2nc(C)cc(C)c2c1NC(=O)c1ccccc1Cl	6.73%
Cn1c2ccccc2c2cc(C3CC(=O)Oc4c3c(=O)oc3ccccc43)ccc21 (stereo not shown)	1.32%
COC(=O)C1C[C@@H](O)CN1CC1CC=CCC1 (stereo partly shown)	-4.8%
CC1CCCCC1N1CC(=O)N(Cc2ccc(F)cc2)C(c2ccc(Cl)cc2)C1=O (stereo not shown)	-0.406%
COc1cc(C)c(CN2CCc3c([nH]c4ccccc34)C2)cc1C	-2%
CCOCCn1c(CN2CCCCC2C)nc2c1c(=O)n(C)c(=O)n2C (stereo not shown)	-5.1%
COc1cc(OC)cc(C(=O)/N=c2\sc(C)c(-c3ccccc3)n2C)c1	-1.61%
O=C(/C=C/c1ccc([N+](=O)[O-])cc1)NCCc1ccccn1	4.89%
CCCCCC(C)NC(=O)c1ccc(Cl)c(Cl)c1 (stereo not shown)	-4.21%
O=C(COc1ccc(C2N(Cc3ccccc3)CCN2Cc2ccccc2)cc1)N1CCOCC1	20.5%
O=C(NCCC1=CCCCC1)C(c1ccccc1)N1Cc2ccccc2C1=O (stereo not shown)	2.08%
Cc1ccc(CC(=O)NCCCn2ccnc2)cc1	3.87%
C=CCOC(=O)C1=C(C)N=C2CCCC(O)=C2C1c1cc(OC)c(OC)c(OC)c1 (stereo not shown)	2.45%
CC1=NN(C(=O)c2cccc(N(C)C)c2)C(O)(C(F)(F)F)C1 (stereo not shown)	-12.5%
CCOCCCNC(=O)Cn1nc(C)c2sc3ccccc3c2c1=O	-0.698%
CC(NC(=O)c1cc(S(=O)(=O)N2CCCC2)cn1C)c1ccccc1 (stereo not shown)	-5.99%
Cc1ccc(S(=O)(=O)NCCc2ccncc2)cc1	-8.77%
O=C(CNC(=O)c1cccs1)NCCN1CCC(Cc2ccccc2)CC1	-4.97%
